In the antibiotic and cytotoxicity screens of Wong et al. (2023):
Some of the results follow.

What was measured:
HSkMC = human skeletal muscle cells; experiment: cytotoxicity call (relative viability < 0.9); conditions: 10 µM
HepG2 = experiment: cytotoxicity call (relative viability < 0.9); conditions: 10 µM
S. aureus RN4220 = experiment: growth inhibition call (relative growth <= 0.2); conditions: 50 µM

Cc1ccc(S(=O)(=O)N[C@H]2CC[C@H](CC(=O)N3CCC(Cc4ccccc4)CC3)O[C@H]2CO)cc1
inactive: cytotoxicity call (HSkMC) | cytotoxicity call (HepG2) | growth inhibition call (S. aureus RN4220)

C[C@H](CO)N1C[C@H](C)[C@@H](CN(C)C(=O)Nc2ccc(F)cc2)OCCCC[C@H](C)Oc2ccc(NC(=O)NC3CCCCC3)cc2C1=O
inactive: cytotoxicity call (HSkMC) | cytotoxicity call (HepG2) | growth inhibition call (S. aureus RN4220)

CO[C@@H]1CN(C)C(=O)c2ccc(NC(=O)CC(F)(F)F)cc2OC[C@@H](C)N(S(=O)(=O)c2cn(C)cn2)C[C@@H]1C
inactive: cytotoxicity call (HSkMC) | cytotoxicity call (HepG2) | growth inhibition call (S. aureus RN4220)

C[C@@H]1CCCCO[C@H](CN(C)C(=O)Nc2cccc3ccccc23)[C@H](C)CN([C@@H](C)CO)C(=O)c2cc(NS(=O)(=O)c3cn(C)cn3)ccc2O1
inactive: cytotoxicity call (HSkMC) | cytotoxicity call (HepG2) | growth inhibition call (S. aureus RN4220)

C[C@H]1CCCCO[C@@H](CN(C)CC2CCCCC2)[C@@H](C)CN([C@@H](C)CO)C(=O)c2cc(NC(=O)C3CCCCC3)ccc2O1
inactive: cytotoxicity call (HSkMC) | cytotoxicity call (HepG2) | growth inhibition call (S. aureus RN4220)

C[C@H]1CN([C@@H](C)CO)C(=O)c2cccc(NS(=O)(=O)c3ccc(F)cc3)c2O[C@@H]1CN(C)S(=O)(=O)c1ccccc1
inactive: cytotoxicity call (HSkMC) | cytotoxicity call (HepG2) | growth inhibition call (S. aureus RN4220)

COCC(=O)N(C)C[C@@H]1Oc2cc(C#Cc3ccccc3)ccc2S(=O)(=O)N([C@@H](C)CO)C[C@H]1C
inactive: cytotoxicity call (HSkMC) | cytotoxicity call (HepG2) | growth inhibition call (S. aureus RN4220)
